Measurements published in the supplement of paper PMC11417369.
± gives the standard deviation of the averaged measurements. The list shows a part of the results.

System: PfAP2-EXP AP2 domain (GST-tagged)
Experiment: gcPBM binding intensity (ln(normalized median fluorescence intensity)); higher = stronger DNA binding
Procedure, shortened: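 Plasmodium falciparum DNA-binding domains carrying a GST tag were expressed in E. coli and applied for 1 h, at about 25 μg on average, to an Agilent 4 × 180k array. The array held primer-extended double-stranded 36-bp intergenic genomic probes together with negative controls, and binding took place in 1× PBS with 1% milk, 0.2 mg/ml BSA, 0.5% salmon testes DNA and 0.03% Triton X-100. An Alexa488 anti-GST antibody detected bound protein, and the array was scanned at 488 nm. Binding intensity is taken as the highest Masliner-normalised natural-log median intensity across replicate spots of either probe orientation.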

| Sequence | gcPBM binding intensity (ln) |
| --- | --- |
| CGCACCCACAGACACACACACACATATATATATATA [CACACA_site2202] | 9.93 ± 0.81 |
| AAAGAATAATTAAATACACACATATTACAGTAAAAA [CACACA_site2450] | 8.76 ± 0.41 |
| TACATACAGAAACACACACACACATATATATATATA [CACACA_site2919] | 10 ± 0.28 |
| TTATACATATTTATATGTACGTAATATAATATTAAT [XGTACX_site6520] | 8.44 ± 0.26 |
| TTATAATTTTTCTATTGTACATTTAATAATATATAT [XGTACX_site7326] | 8.7 ± 0.35 |
| TATTTAATTTATACACGTACATATATAAATAATACA [XGTACX_site1148] | 8.5 ± 0.28 |
| ATGAAGAAATAAATGTGTACATATCTTAGTATCATA [XGTACX_site8658] | 8.58 ± 0.34 |
| TCATGGGTGTATTTCACACACGGATAATCATTTATA [CACACA_site4663] | 8.32 ± 0.45 |
| TATAATGATGATGATAGTACGTATTAGTATAAAAAA [XGTACX_site9] | 8.74 ± 0.42 |
| AGAAATAAAAAAAAAAATATATATATTATATATATA [CACACA_negctrl_site1799] | 8.955 ± 0.007 |
| ATATTTTTTTTTGTTACACACGTTTTTTAAAAAATG [CACACA_site1603] | 9.1 ± 0.51 |
| TCATAAAAATAAAAATGTACACATTAGAAATATTGT [XGTACX_site3671] | 8.51 ± 0.39 |
| TTACTATAAAATGTCACACATTCTGTTTCCTTACTT [CACACA_site5714] | 8.6 ± 0.49 |
| ATTTTTTCTCATAAAAACGTGAACGTTTATTTTACA [CACACA_negctrl_site1041] | 8.73 ± 0.38 |
| TCAACAAAATTGAAGGAACACACATACATATATATA [CACACA_site7940] | 8.87 ± 0.23 |
| TATAAATATCTGTATGCACACATTTTTTTTGGAAAA [CACACA_site4734] | 8.62 ± 0.37 |
| AGCACATAAATAATTAAACACACATTGTTCTAGACA [CACACA_site8746] | 8.41 ± 0.38 |
| ATTATAAAAGAATTTTTTTTTATTTCATTAAAATAT [CACACA_negctrl_site1137] | 7.88 ± 0.38 |
| AAAAAAATACATACGTGTACCCACATATATGTATCT [XGTACX_site5319] | 8.47 ± 0.29 |
| GTTTCTACTTATATAACAGGACACGTGTGAATAATT [TGCATGCA_negctrl_site430] | 9.13 ± 0.51 |
| AAAAAAAAAAAACATTGTACGCACATTTTATATGTC [XGTACX_site6974] | 8.71 ± 0.42 |
| ACAATTGCATCTATCACACATACATACATACATACA [CACACA_site5063] | 9.2 ± 0.2 |
| TTGAAGGTGGCAATGTGTACATAGAATAACCAGTGC [XGTACX_site4738] | 9.01 ± 0.41 |

| Sequence | gcPBM binding intensity (ln) |
| --- | --- |
| GCAAGTCCATGAACGGTGCAGGAATTAACAAAAATA | 8.72 ± 0.36 |
| AATAAAAATAAAAGCACACATAAATATATATATATT [CACACA_site1441] | 8.66 ± 0.39 |
| TCATGGCCATTTTCAGTGCATATGTGTATTTAATAT [GTGCAC_site9529] | 8.8 ± 0.4 |
| TTTATGTATTTAATATGTACATATAGTTGTTAATAA [XGTACX_site1938] | 8.53 ± 0.24 |
| AAAATGTACGCATATACACACACATAAATAGATACG [CACACA_site9124] | 8.71 ± 0.45 |
| GCTATATATTAATGTTGTACTTTATGTTCATATTGT [XGTACX_site3619] | 8.8 ± 0.3 |
| ATATATATATAATTATATAAAATATATCATATGTTA [XGTACX_negctrl_site47] | 9.37 ± 0.14 |
| AAGAAATAATTATTATGTACTTAAAAAAATTAAAAT [XGTACX_site7423] | 8.45 ± 0.38 |
| AAGAAATAAATACATACACACATATATAAATAAATA [CACACA_site7559] | 8.68 ± 0.18 |
| AAGGTATACACTGCTTTATCAAGTTTAACTCTTTTT [XGTACX_negctrl_site118] | 8.46 ± 0.37 |
| ATCATTTTTATGTACACACACATATACGTTGAATAT [CACACA_site1865] | 8.87 ± 0.42 |
| ACATCATAAAATTTATGTACACATTTTTAATTATAC [XGTACX_site7759] | 8.66 ± 0.28 |
| AAGATATGAGGGAATACACACATATTTATATTTATA [CACACA_site6846] | 8.26 ± 0.38 |
| TATAAAATTTACGTGTGTACATATTTAATAATTTTT [XGTACX_site5001] | 8.4 ± 0.4 |
| AAATTTGAAATGCATGAACACACACCGCTATAAATG [CACACA_site8230] | 8.94 ± 0.4 |
| TAAATATAGAAACACACACACATTAATACATATATT [CACACA_site3489] | 8.71 ± 0.49 |
| TAATTTTTTATATATTGTACAAATAATATATGATGT [XGTACX_site268] | 8.46 ± 0.23 |
| TTCGTAATTTATATCACACACATATATATATAATAA [CACACA_site3115] | 8.64 ± 0.37 |
| TACCCTTGCATGTAGGTGCAATTTTTTTTTTTTTTT | 9.06 ± 0.042 |
| CAACTTTATACATATAGTACAAGTTATATTTTATTA [XGTACX_site6651] | 8.02 ± 0.38 |
| AACGATTTACATCACTGTACTAATGATATACCTCAT [XGTACX_site7463] | 8.45 ± 0.23 |
| TATATATTTTCTTTTGCACACTGTTTTCCTTTTTTT [CACACA_site2739] | 9.14 ± 0.57 |
| TATATATATATATATTGTACTATATAGTATCTTTTT [XGTACX_site1646] | 9.98 ± 0.55 |

| Sequence | gcPBM binding intensity (ln) |
| --- | --- |
| CTTTCCATATATGATAGTACACGATAAAAAAAAAAA [XGTACX_site5772] | 8.64 ± 0.44 |
| TTTAAAAAAAATTCATATTATATATATATATATTAT [CACACA_negctrl_site1733] | 7.92 ± 0.23 |
| AAAGAAATAAGGTGCACACATATACATATATATATA [CACACA_site429] | 9.78 ± 0.11 |
| TAATAATAGTACTGACATCAAAATCTTATTAAAAAT [GTGCAC_negctrl_site308] | 8.29 ± 0.43 |
| TTCTTTTTTATTTTTCAACACACATAATAAATTTCT [CACACA_site8253] | 8.89 ± 0.28 |
| AAAAACAATCATTTTAAATAAAAATCTCTAATTTAA [GTGCAC_negctrl_site138] | 7.67 ± 0.35 |
| ATTTCTTTAATATACACACACCAAAACAAAAAAAAA [CACACA_site6416] | 8.72 ± 0.45 |
| TTTTCATTTTTTTTTTTTTTTTTTTTTCTTTTTTTT [CACACA_negctrl_site1312] | 8.12 ± 0.67 |
| ATTTGTTCATTTGGTTGTACATAATTTATTTTTATA [XGTACX_site785] | 8.75 ± 0.33 |
| GTTGTGTAATTCGTAACACACATAAAATATATATAA [CACACA_site6059] | 8.53 ± 0.45 |
| ATATAGTTCGATATAGTTAGTATGAATTGAAAAATA [CACACA_negctrl_site1826] | 8.38 ± 0.42 |
| AAAAAAATAAAACACACACACAAAAAAATAAAAATA [CACACA_site465] | 8.71 ± 0.47 |
| TTTTTAAAATATTTAACACACAATTTTAATGCATAA [CACACA_site6036] | 8.32 ± 0.27 |
| CACCCATACACATACAAACACACATTCTATATATAT [CACACA_site1600] | 8.91 ± 0.18 |
| GAAATTAAATGACATACACACTATATTATATATTTT [CACACA_site5693] | 8.34 ± 0.35 |
| TAGATAGATTAAAATACATGCATATTATTAAAAAAT [TGCATGCA_site739] | 8.84 ± 0.13 |
| ATTTAATGTATTTTGCGTACGAATTATTTTATTTCA [XGTACX_site7331] | 8.78 ± 0.31 |
| AATCATAAACATTATGCACACAAAAATAAAAAAAAA [CACACA_site8289] | 8.63 ± 0.29 |
| TATCTTCAATGTGAAAGTACTTAAATTGTTATAAAA [XGTACX_site2586] | 8.38 ± 0.49 |
| AGCATAAAAATGATATGTACATATATATATATATAT [XGTACX_site2836] | 10 ± 0.39 |
| CATACATACATACATACACACATACATATGTATATA [CACACA_site7216] | 9.22 ± 0.2 |
| TGGAATAAAAAAAGGAGTACAATTAATTATTCTTAA [XGTACX_site8299] | 8.57 ± 0.41 |
| TATATATATATATATGTGCACATATTTATATGTTTT | 10.1 ± 0.33 |

| Sequence | gcPBM binding intensity (ln) |
| --- | --- |
| ACTTATAATATTTAGTGTACATATTGTGACTAATAC [XGTACX_site1508] | 8.62 ± 0.25 |
| AAAAAAAAAACAAATGCATGTAATATAAGAATTACA [TGCATGCA_site908] | 9.02 ± 0.34 |
| ATTTTAAAAAATTAATGTACTTAATTAATACTGAAA [XGTACX_site7702] | 8.18 ± 0.32 |
| TATTTATAAATTTACACACACACATGTGAACATAAA [CACACA_site1909] | 8.63 ± 0.41 |
| TATCAAAAAAAAAGTAGTACGATAATAGTTTCCCAA [XGTACX_site1812] | 8.66 ± 0.53 |
| TGAATTGTAATTTATAATATACGTGGTTTCTACTTA [CACACA_negctrl_site559] | 8.18 ± 0.41 |
| ATTTAATAACGGCATGCATGTCCTTATATAAATTTA [TGCATGCA_site1012] | 9.24 ± 0.55 |
| TATTATATATTATATAGTACATATTTATGTAAGAGG [XGTACX_site3099] | 8.67 ± 0.35 |
| CCTTACCAAATAATATGTACACATTTAATGTTATAT [XGTACX_site7840] | 8.59 ± 0.23 |
| TATCAGTATACAACAACACACATAATGTTTGTCATC [CACACA_site2980] | 8.46 ± 0.42 |
| CACTTAAAAAAAATACGTACACATATATATATATAT [XGTACX_site2054] | 10.1 ± 0.33 |
| CAAAAATAAATATAAACACACAATAAATAAATAAAT [CACACA_site891] | 8.75 ± 0.58 |
| GATCATAATATTTAAAAGAATATATATAAAAAGGAA [XGTACX_negctrl_site310] | 8.66 ± 0.39 |
| ATGGTATCTTTTAGAAGTACATCATGATAATAATTT [XGTACX_site5544] | 8.47 ± 0.4 |
| GTATTAATTTATATATGTACATATGTGATATATATA [XGTACX_site5825] | 8.7 ± 0.28 |
| CAAAATTAATAAGTCACACACACATATATAATATAT [CACACA_site798] | 8.73 ± 0.45 |
| TATATTTATACAATATGTACATATTATATATATATA [XGTACX_site3098] | 9.57 ± 0.26 |
| TATAAAAATATATGCACACAAATAAAAAATTATATA [CACACA_site3629] | 8.48 ± 0.53 |
| TCATAGCACAAAAAATGTACTTATTATTTAATATTT [XGTACX_site5687] | 8.15 ± 0.27 |
| ATGTGATAATTTAATAGTACATAACAGTTTAACAAT [XGTACX_site5854] | 8.83 ± 0.3 |
